Measurements published in PubChem BioAssay AID1745853 (National Center for Advancing Translational Sciences (NCATS), 2022).
The other results are listed elsewhere or left out. Further columns of the screen follow, without active or inactive calls.

Experiments:
Test in all cases: Primary Screen for Target Class Profiling of Small Molecule Inhibitors of Methyltransferases
[1] = target: Glycine N-methyltransferase (Homo sapiens) (UniProt Q14749); settings: purified enzyme, MTase-Glo SAH luminescence; measured here: GNMT inhibition; at 40 µM; stronger effect = lower value
Summary of the method: (§1)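 Each enzyme was reacted with SAM and its substrate, with compounds tested once at 40 uM; SAH formed was read by MTase-Glo luminescence.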

[2] = target: Guanidinoacetate N-methyltransferase (Homo sapiens) (UniProt Q14353); settings: purified enzyme, MTase-Glo SAH luminescence; measured here: GAMT inhibition; at 40 µM; stronger effect = lower value
Summary of the method: as §1

[3] = target: Histamine N-methyltransferase (Homo sapiens) (UniProt P50135); settings: purified enzyme, MTase-Glo SAH luminescence; measured here: HNMT inhibition; at 40 µM; stronger effect = lower value
Summary of the method: as §1

[4] = target: Nicotinamide N-methyltransferase (Homo sapiens) (UniProt P40261); settings: purified enzyme, MTase-Glo SAH luminescence; measured here: NNMT inhibition; at 40 µM; stronger effect = lower value
Summary of the method: as §1

[5] = target: Phenylethanolamine N-methyltransferase (Homo sapiens) (UniProt P11086); settings: purified enzyme, MTase-Glo SAH luminescence; measured here: PNMT inhibition; at 40 µM; stronger effect = lower value
Summary of the method: as §1
On the % scale 0 is the no-effect control and ±100 the full control effect.

SMILES | activity change, negative = inhibition [1] | activity change, negative = inhibition [2] | activity change, negative = inhibition [3] | activity change, negative = inhibition [4] | activity change, negative = inhibition [5]
C=C1C(=O)O[C@@H]2/C=C(\C)CC/C=C(/C=O)[C@H](OC)[C@@H](OC(=O)C(C)C)[C@@H]12 | 0% | 1.8% | 0.669% | -10.5% | 2.75%
COCCN1C(=O)N(CCCc2cccnc2)C(=O)C12CCN(C/C=C/c1ccc(OC)cc1)CC2 | -8.75% | -6.84% | -5.29% | -22% | -11.5%
COCc1noc(CCNc2nc(C)nc3c2cnn3C)n1 | -0.816% | 0.408% | 1.09% | -1.34% | -6.16%
O=S(=O)(c1ccc(Br)cc1)c1nnn2c1nc(NCc1ccccc1)c1ccccc12 | -2.95% | -3.54% | -6.24% | -4.96% | -13%
COc1ccccc1NC(=O)N1CCCC2(CCC(=O)N(CC3CC3)C2)C1 (stereo not given) | -4.09% | -10.4% | -5.07% | -12.3% | -8.39%
CC1(C(=O)NC2CCCCC2)Cn2c(cc3occc32)C(=O)N1CCN1CCOCC1 (stereo not given) | -5.11% | 5.11% | -3.08% | 2.41% | -2.28%
Cc1cc(C)c2nonc2c1S(=O)(=O)N1C[C@@H](N(C)C)[C@H](C(C)C)C1 | -8.61% | -0.758% | -4.45% | -1% | -1.12%
CCOc1ccccc1CNC(=O)c1cc2n(n1)CC(C)(C(=O)NC1CCCCCC1)N(C)C2=O (stereo not given) | 1.52% | 3.95% | -7.89% | 0.398% | -1.21%
O=C(CCn1ccc2cc(S(=O)(=O)N3CCCC3)ccc21)NCc1ccccc1Br | 5.53% | 0% | 7.1% | 8.54% | 4.33%
CCn1nccc1C(=O)N1CC[C@H](n2c(=O)n(C)c3cccnc32)C1 | -3.71% | -0.372% | -0.828% | -0.912% | 7.54%
C=C1C(=O)OC2/C=C(\COC(C)=O)CC/C=C(\C=O)CC(OC(=O)C(C)CC)C12 (stereo not given) | 0.687% | 10.6% | 9.41% | -2.56% | 7.14%
Cc1cccc(CSc2nnc3n(CC(C)C)c(=O)c4ccc(C(=O)NC(C)C)cc4n23)c1 | 1.1% | 3.04% | 10.5% | -5.91% | 2.25%
COc1ccc(OC)c(CCN2C(=O)c3cc4ccccc4n3CC2(C)C(=O)NC2CCCC2)c1 (stereo not given) | -0.473% | 4.79% | -1.76% | -1.11% | -4.16%
Cc1nc(CCNS(=O)(=O)c2c(C)nn(C)c2C)no1 | 1.11% | 0.534% | 2.98% | -0.429% | 0.247%
Cc1cnc(-c2cccnc2)n1CC1CCN(S(=O)(=O)c2ccccc2)CC1 | -1.64% | 1.96% | 0.495% | -10.6% | 9.78%
Cc1nc(C(=O)NC2CC(c3cc(N4CCC(O)C4)ncn3)C2)cs1 (stereo not given) | -5.69% | -5.03% | -1.88% | -7.4% | -3.97%
C[C@H](C(=O)NC1CCCC1)N(C(=O)Cn1nnc(-c2ccc3c(c2)OCO3)n1)C1CCCCC1 | 3.38% | 7.84% | 4.93% | -17.2% | -4.76%
